# Measured values reported in PubChem BioAssay AID1347417 (National Center for Advancing Translational Sciences (NCATS), 2020).
# In all, about 120,000 compounds went through this assay and about 5,300 (4.4%) were called active. The inconclusive results got no clear call from the source; some entries with a clear call stand among them for comparison. Calls come from the whole dose curve; as a rule, active = well fitted inhibition curve with a large enough effect; inconclusive = small, poorly fitted or top-dose-only effect; inactive = no such curve, though single readings can be large or run the other way. Potencies of inconclusive entries are doubtful fits and often do not repeat.
# Assay: qHTS Primary assay for Inhibitors of Plasmodium falciparum Dd2 growth in vitro; note: nearly all actives have a fitted effect of over 65% in size;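 for activity, negative = inhibition: plate controls were DMSO vehicle for no effect and reference drug for full effect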
# Settings: P. falciparum Dd2 growth, SYBR Green, 72 h; activity, negative = inhibition: at 28.9 µM (top of the series) unless noted; series mostly up to 28.9 µM
# Source text: Malaria, a parasitic disease spread to humans through the bite of a Plasmodium infected Anopheles mosquito, continues to be a global health burden affecting millions of people, with an estimated 228 million cases and 405,000 deaths in 2018. Concerns about safety and limitations of current antimalarial treatments strongly emphasize the need to develop new therapeutic options. The scarce number of chemotypes and validated drug targets with efficacy against the liver stage, have hindered development of new antimalarials. To address this, a chemoprophylactic drug discovery effort was conducted through a combined phenotypic high-throughput asexual blood stage and liver stage screen, providing a robust foundation to identify liver-stage active lead chemotypes. Compounds were initially screened against Plasmodium falciparum Dd2 strain parasites using a in vitro SYBRGreen-1 based 72 hr proliferation assay to identify novel chemotypes to advance to liver stage assays. NIH/NCATS Early Translation Branch Assay Submitter (PI): Anton Simeonov Ph.D.
# Malaria-vivax Assay Protocol: PROTOCOL TABLE (as described by Inglese et al., 2007) SEQUENCE No. (e.g., 1, 2, 3, etc.); […] (e.g., Cells, Incubation, Reagent, etc.); VALUE; DESCRIPTION SEQUENCE, Parameter, Description 1; Reagent; 3 uL complete malaria growth medium, 1536 TC treated Black clear bottom plate 2; Controls; 23 nL positive control artesunate (300 nM final) to column 1; Neutral control DMSO to columns 2-4 3; Compound; 23 nL of compounds in dose response concentration (29 uM to 0.5 nM final) 4; Reagent; 5 uL malaria infected red blood cells (2.5% hematocrit final, 0.3% parasitemia 5; Time; 72 hours at 37C (5% O2, 5% CO2, 90% N2; 95% Rh) 6; Reagent; 2 uL lysis buffer/SYBRGreen-1, 25 sec shake immediately following dispense 7; Time; ~16 hours at 37C (5% O2, 5% CO2, 90% N2; 95% Rh) 8; Detector; EnVision (PerkinElmer) bottom read at 485/14nm excitation and 535/25 nm emission NOTES (numbers refer to sequence above): 1; Complete Malaria Growth Media: 1X RPMI-1640 w/L-glutamine, 5.5g/L Albumax II, 367 uM Hypoxanthine, 25 mM HEPES, 0.25% Sodium Bicarbonate, 35 uM Gentamicin sulfate 2; Controls were added using the Kalypsis Pintool (Wako USA) equipped with 1536 pinhead 3; Compounds were added in a 7-point, titration with a high final concentration of 29 uM by Pintool from seven inter-plate titrations of library plates and two DMSO control plates at the beginning and end (see Yasgar et al., 2008). 4; Red blood cells infected with Plasmodium falciparum Dd2 parasites were used. 6; Lysis buffer: 20 mM Tris-HCl, 10 mM EDTA, 0.16% Saponin, 1.6% Triton-X, 10X SYBR Green. REFERENCE: Inglese J, Shamu CE, Guy RK. 2007. Reporting data from high-throughput screening of small-molecule libraries. Nat Chem Biol. doi:10.1038/nchembio0807-438 Yasgar A, Shinn P, Jadhav A, Auld D, Michael S, Zheng W, Austin CP, Inglese J, Simeonov A. 2008. Compound Management for Quantitative High-Throughput Screening. J Lab Autom 13:79-89. doi:10.1016/j.jala.2007.12.004
# Potency is the fitted concentration of half-maximal effect; tags give direction and shape of the fitted curve.
Structure (SMILES),Potency,"activity, negative = inhibition"
O=C(COc1cccc(-c2nnc3n2CCCC3)c1)Nc1ccc(Br)cc1,"inconclusive: 17.8 µM [inhibitor, single point]",–
Cc1cccc(CCn2c(=O)c3ccccc3n(Cc3cccc(F)c3)c2=O)c1,"inconclusive: 12.6 µM [inhibitor, single point]",–
CC1CCC2(CC1)NC(=O)N(CC(=O)NCc1cccc(Br)c1)C2=O (stereo not drawn),inactive,–
CC1CCc2nc(NC(=O)COc3ccc(C(C)(C)C)cc3)sc2C1 (stereo not drawn),inactive,–
CCc1nn(-c2ccc(OC)cc2)c(Oc2ccccc2F)c1CCC(=O)NCCOC,inactive,–
Cc1nc2ccn(Cc3cccnc3)c(=O)c2cc1C(=O)Nc1ccc(OC(F)(F)F)cc1,"inconclusive: 12.6 µM [inhibitor, single point]",–
COc1cccc(NC(=O)N2CCN3C(=O)N(Cc4ccc(C)cc4)C[C@H]3C2)c1,inactive,–
FC(F)(F)c1ccc(-c2cnc([C@@H]3COCCN3Cc3ccncc3)[nH]2)cc1,"inconclusive: 15.8 µM [inhibitor, single point]",–
CC(=O)N1CC2(CCN(C3CCCCC3)C2)Cc2ccccc21 (stereo not drawn),"inconclusive: 10 µM [inhibitor, partial curve]",–
COc1ccc(CCNC(=O)Cn2nnc(-c3ccc(C(F)(F)F)cc3)n2)cc1OC,"inconclusive: 1.12 µM [inhibitor, single point]",–
CCS(=O)(=O)c1ncc(N(Cc2ccco2)Cc2sccc2C)c(C(=O)Nc2cc(C)ccc2C)n1,active: 5.62 µM,–
CN(CCc1ccccn1)[C@H]1[C@@H]2OC[C@@H](O2)[C@@H](NCc2ccc(OC(F)(F)F)cc2)[C@@H]1O,inactive,–
O=C(O)C[C@@H]1CCN(C(=O)c2ccc(F)cc2)C[C@@H]1CCN1CCN(c2ccccn2)CC1,inactive,–
COc1cccc(NC(=O)N[C@H]2C[C@@H](c3nc(-c4ccccn4)no3)N(C)C2)c1,"inconclusive: 31.6 µM [inhibitor, single point]",–
Cc1ccc(CC(=O)NCc2nnc3cc(-c4nc(C)no4)ccn23)cc1,inactive,–
Cn1nccc1CN1CCC2(CC1)CNC(=O)c1ccccc1O2,inactive,–
Cn1cccc1C(=O)N1CCC(C(=O)N2CCCCCCNC(=O)CC2)CC1,inactive,–
Cc1noc(C)c1S(=O)(=O)N(C)C1CCc2ccccc21 (stereo not drawn),"inconclusive: 31.6 µM [inhibitor, single point]",–
Cc1cc(C)c(Cn2c(C)c(CNCCCc3ccccc3)c(C(=O)O)c2C)c(C)c1,"inconclusive: 10 µM [inhibitor, single point]",–
Cc1ccc(C)c(N2CCN(C(=O)CN3C(=O)COc4ccc(S(=O)(=O)N5CCCCCC5)cc43)CC2)c1,"inconclusive: 5.62 µM [inhibitor, partial curve]",–
CCOC(=O)c1ccc(NC(=O)C2Cc3ccccc3CN2S(=O)(=O)c2ccc(Cl)cc2)cc1 (stereo not drawn),"inconclusive: 17.8 µM [inhibitor, single point]",–
CC(NC(=O)Cn1ncc2c3ccccc3n(Cc3ccc(F)cc3)c2c1=O)c1ccccc1 (stereo not drawn),–,inconclusive: -33.8% [inhibitor] [at 0.594 µM]
C[C@H](C(=O)N1CCCC1)C1CC[C@@]2(C)Cc3sc(CS(=O)(=O)C(C)(C)C)nc3[C@@H](C)[C@@H]2[C@H]1O (stereo partly drawn),inactive,–

Structure (SMILES),Potency,"activity, negative = inhibition"
Cc1ccccc1N1Cc2c(NCC(C)(C)C)ncnc2N(C)CC1=O,"inconclusive: 3.98 µM [inhibitor, single point]",–
CCN1CCCCC12Cc1ccccc1CN(C(=O)CCCN(C)C)C2 (stereo not drawn),inactive,–
Cc1cnc(C2CC2)n1C1CCCN(C(=O)C2CC2)C1 (stereo not drawn),inactive,–
O=C1Nc2ccccc2C12CCN(CC1CCCCC1)CC2,"inconclusive: 3.16 µM [inhibitor, partial curve, poor fit]",–
CCc1ccc(S(=O)(=O)c2nnn3c2nc(N2CCOCC2)c2ccccc23)cc1,"inconclusive: 8.91 µM [inhibitor, single point]",–
Cc1cc(C2CCCN2C(=O)c2cc(F)ccc2F)on1 (stereo not drawn),inactive,–
Cn1nccc1C(=O)N1CCC(Oc2cccc(F)c2)C1 (stereo not drawn),"inconclusive: 20 µM [inhibitor, partial curve, poor fit]",–
CCCc1noc(Cn2nc(-c3ccccc3)c3ccccc3c2=O)n1,inactive,–
O=C(NCc1ccc(F)cc1)[C@@H]1C[C@@H](c2cccc(C(F)(F)F)c2)N(CC2CCOCC2)C1,"inconclusive: 3.55 µM [inhibitor, full curve]",–
Cc1nc(CN2CCN(c3nccc(-c4cccnc4)n3)CC2)cs1,inactive,–
Cc1ccc(C2Cn3nnc(C(=O)N4CCC(C(=O)NC5CCC(C)CC5)CC4)c3CO2)cc1 (stereo not drawn),inactive,–
CCc1cc(CN(C)C(=O)c2oc3cc(OC)ccc3c2C)on1,"inconclusive: 14.1 µM [inhibitor, single point]",–
Cc1ccc(Cn2c(=O)n(Cc3ccco3)c(=O)c3sc4ccccc4c32)cc1,inactive,–
COc1ccc(C(=O)N2C[C@@H](F)C[C@H]2C(=O)N2CCCCC2)cc1,inactive,–
FC(F)(F)c1ccc(CN2CC(Oc3ccc4c(c3)OCO4)C2)cc1,inactive,–
CCC(c1cccs1)N1C(=O)[C@H]2CN(S(=O)(=O)c3ccccc3F)C[C@H]2C1=O (stereo partly drawn),"inconclusive: 7.08 µM [inhibitor, partial curve, poor fit]",–
Cc1nc2c(C(=O)NCc3ccccc3)cnn2c(C)c1Cc1ccc(F)cc1,"inconclusive: 17.8 µM [inhibitor, single point]",–
COc1ccc2c(c1)OCC(CNC(=O)c1cnn3ccccc13)C2 (stereo not drawn),"inconclusive: 20 µM [inhibitor, partial curve, poor fit]",–
COc1cc2c(cc1OCC1CC1)NC(=O)C21CCN(C(=O)c2cccc(O)c2)CC1,"inconclusive: 0.631 µM [inhibitor, partial curve, poor fit]",–
O=c1c2sc3ccccc3c2n(Cc2ccccc2F)c(=O)n1Cc1ccccc1,"inconclusive: 7.08 µM [inhibitor, partial curve, poor fit]",–
COc1ccc(Cl)cc1NC(=O)c1cc(C)nc2c1c(C)nn2-c1ccccc1,"inconclusive: 0.0089 µM [inhibitor, full curve, poor fit]",–
COc1cccc(CNC(=O)C2CCN(C(=O)N3CCOc4ccc(Cl)cc43)CC2)c1OC,"inconclusive: 1.26 µM [inhibitor, single point]",–
COc1ccc(-c2nc(C3CC3)nc3c2CN([S+](=O)([O-])c2cccs2)CC3)cc1,"inconclusive: 8.91 µM [inhibitor, single point]",–

Structure (SMILES),Potency,"activity, negative = inhibition"
COc1ccccc1NC(=O)N1c2ccccc2Sc2ccccc21,"inconclusive: 5.01 µM [inhibitor, partial curve]",–
OC1(CN2CCCCC2)CCN(Cc2cnn(-c3ccccc3Cl)c2)C1 (stereo not drawn),"inconclusive: 12.6 µM [inhibitor, partial curve, poor fit]",–
COc1cc(C)ccc1S(=O)(=O)NCC1CNCCOC1 (stereo not drawn),inactive,–
COc1ccc(CCC(=O)NCc2ccc3c(c2)CCN3C(=O)c2ccc(F)cc2)cc1,active: 4.47 µM,–
O=C(Cc1cccc(Cl)c1)N1CCc2nc(C3CC3)nc(-c3ccc(Cl)cc3)c2C1,"inconclusive: 1.78 µM [inhibitor, partial curve, poor fit]",–
COc1ccc(-c2nc3cc(NC(=O)Cc4ccc(Cl)cc4)ccc3o2)cc1OC,"inconclusive: 8.91 µM [inhibitor, partial curve, poor fit]",–
O=C(Cc1c[nH]c2ncc(-c3ccccc3)cc12)N1CCCC1,"inconclusive: 31.6 µM [inhibitor, single point]",–
COC(=O)C1CCN(C(=O)CC[C@H]2CNC(=O)[C@@H]3[C@@H](CCN3Cc3ccc(OC)cc3)N2C)CC1,inactive,–
Cc1ccc(NS(=O)(=O)c2ccc3c(c2)NC(=O)C(C)C(=O)N3)cc1F (stereo not drawn),inactive,–
CCc1ccc(CNC(=O)c2ccc3nc(SCc4ccc(F)cc4)n(C)c3c2)cc1,"inconclusive: 11.2 µM [inhibitor, single point]",–
Cc1cccc2c1nc1n2[C@@H](CNC(=O)c2ccc(F)cc2)COC1,inactive,–
CN1C[C@H](O)C[C@H]1c1nnc2n1CCN(C(=O)Cc1cccc(F)c1)CC2,inactive,–
Cc1cccc(N2CCN(C(=O)c3cc4c(=O)oc5ccccc5c4s3)CC2C)c1 (stereo not drawn),"inconclusive: 3.55 µM [inhibitor, single point]",–
COc1ccc(-c2cnc3[nH]cc(CC(=O)Nc4cccc(F)c4)c3c2)cc1,inactive,–
CCNC(=O)[C@@H]1C[C@H](NC(=O)c2ccn(CC)n2)CN1Cc1nc(C)no1,inactive,–
Cc1ccc(-n2nc(C(=O)N3CCN(c4cccc(C(F)(F)F)c4)CC3)c(=O)n(C)c2=O)cc1,"inconclusive: 11.2 µM [inhibitor, single point]",–
C=CCN1CCN(C(=O)c2c(C)oc3c2CN(Cc2ccc(F)cc2)CC3)CC1,"inconclusive: 7.08 µM [inhibitor, partial curve, poor fit]",–
NCc1ccccc1-c1cc(F)cc(F)c1,active: 12.6 µM,–
CN1CCc2c([nH]c3ccccc23)C12CCN(C(=O)c1cn(C)cn1)CC2,"inconclusive: 6.31 µM [inhibitor, partial curve, poor fit]",–
Cc1ccc(NC(=O)c2cnn(-c3ccc(C)c(C)c3)c2C2CCN(C(=O)OC(C)(C)C)CC2)c(C)c1,"inconclusive: 17.8 µM [inhibitor, single point]",–
COc1ccc(-c2cc(N3CCC(NC(=O)c4ccoc4)CC3)n[nH]2)cc1,active: 0.794 µM,–
NCCCCC(=O)N1CCOc2c(O)cc(-c3csc4ccccc34)cc2C1,active: 5.01 µM,–
